In PMC12136788 one finds binding signal data, which are given here for 22 molecules.

To fix the notation:
B1: chr14:55515796:55515797:+_ENSMUSG00000022194_ENSMUST00000116476|mus_hu|motif|central (ssRNA)
RNA: GGGAGUUCUACAGUCCGACGAUCAAAUAGGGACUCAUCUAAGGCCAAGGAAGUCCUCACUGACUCUUUGUCUGAGAACUCGGUAUACGCAAACCCUUUGGGAUGGCCACUAAAUUUGUCACACAGUAUGGUAACACGGUUGACCAACAGAGGAUUGAGCAUCA
B2: chr5:37680062:37680063:+_ENSMUSG00000029121_ENSMUST00000031004|mus_hu|mus_mus_mus_hu_False|28_88 (ssRNA)
RNA: GGGAGUUCUACAGUCCGACGAUCUUUGGGUGUAGCUGGUACCUCGUACACAGGCCCGUCAUACAUGCCCCUGGAAACCCCUUGCAAUCCAAAAACCUUAUUCCUGAUCCUGACACGCUGGUACAGGUGCUCCGGGAACGCCUUCAACAGAGGAUUGAGCAUCA
B3: chr3:148802587:148802588:-_ENSG00000071794_ENST00000310053|hu_mus|hu_hu_hu_mus_False|8_18 (ssRNA)
RNA: GGGAGUUCUACAGUCCGACGAUCUCCAACAACUUGUCCUCUCAUAGUUCCAAAUAAAACCAAAUCUUGCUCUUCAUCACUCGUUAGGAAGUCAUCUGGAGGAAUAAUGUCUUGGAAUUCAAAACGUGGAAAGAAAGUUGAGUACAACAGAGGAUUGAGCAUCA
B4: chr2:153237265:153237266:-_ENSMUSG00000061411_ENSMUST00000109784|mus_mus|mus_mus_mus_hu_False|8_98 (ssRNA)
RNA: GGGAGUUCUACAGUCCGACGAUCAAAAAAAAAAAAAGAAAAGUGUCCUUGUGCCCAAAGUCUCAGGUGCUUGGAGUGUGGCUAGAAACAGCUCUUUUGGAUCCCACCUCUUUCAAAAACAAAAUGUCCAACUGGUGGAGGCAGCAACAGAGGAUUGAGCAUCA
B5: chr19:16212804:16212805:+_ENSG00000167460_ENST00000300933|hu_mus|hu_hu_hu_mus_False|38_48 (ssRNA)
RNA: GGGAGUUCUACAGUCCGACGAUCAACAAUUCUGGAGUGAAGGAAAGAUGUAACAUGGAACAGCAUUAAAGCUCAGUCAGAAGGCACGUGGGUAAUUAUGACUAUUUCAGCAUUCUCGCUUGGAAUGCUUAAAGACAAUCUGUUCAACAGAGGAUUGAGCAUCA
B6: chr6:40197388:40197389:+_ENSMUSG00000057716_ENSMUST00000061740|mus_mus|mus_mus_mus_hu_False|38_88 (ssRNA)
RNA: GGGAGUUCUACAGUCCGACGAUCGAGACACUGGGGUGGAUUUAUUCUCAGUUUGGGUGGGUGCUAGCCACUAAGACUGUUAUUUUGGGAUUCAUGGCCUUGAAGAUCAAGAGGGAAAGGAAGAGGAUGGAAAGAGUCAAGAGUCAACAGAGGAUUGAGCAUCA
B7: chr10:62544473:62544474:+_ENSG00000170312_ENST00000395284|hu_hu|FALSE|FALSE (ssRNA)
RNA: GGGAGUUCUACAGUCCGACGAUCUGUAGUUUUGUGUCUACCCUUAUACACAACUCCAUAGGUACCUUCUCCAAUUUUCUCUAUUUUGGUAUAAUCUUCCAUAGUUAGUCAAUGGGUAUGGUAGAUCCCGGCUUAUUAUUCCGCCAACAGAGGAUUGAGCAUCA
B8: chr16:22092171:22092172:+_ENSG00000185716_ENST00000542527|hu_mus|motif|central (ssRNA)
RNA: GGGAGUUCUACAGUCCGACGAUCCCGUUUAGACAUUCGUCAGCCUGGUAAACAGACUUUGCCAGCAAACAGAAGUCCGGCGGUUGUGAAGAAAAUCGAUAAGACAAAAAGUACAUAUGAUGACCCAACUACUGUGUUGUUGGGCAACAGAGGAUUGAGCAUCA
B9: chr11:87793471:87793472:-_ENSMUSG00000020483_ENSMUST00000020775|mus_mus|mus_mus_mus_hu_False|88_88 (ssRNA)
RNA: GGGAGUUCUACAGUCCGACGAUCUGGACUUGAAAAUAAAAGAAUAAGCUAGAUUUCCCACCCCCCCACAUUGUCAACCCUACACGAGAGUUUUGAAGGCGACUCAUGAAAAUCAGCAGCUCAAACGGCAAUGACCACCCCACCCAACAGAGGAUUGAGCAUCA
B10: chr17:45760540:45760541:+_ENSG00000108424_ENST00000290158|hu_mus|motif|central (ssRNA)
RNA: GGGAGUUCUACAGUCCGACGAUCGCGCUGACCAUUCGUCAGUGUUUUCCCUAGAGUAAUUAAAAUGAAACCAAACCAAACCGGAACAGCGUCUUUCCUCAUUUAAAAAAAAAACACGUCUCUUGUGCUGCAUCAGUAGCCAGACAACAGAGGAUUGAGCAUCA
B11: chr3:57569730:57569731:-_ENSG00000168374_ENST00000303436|hu_hu|FALSE|FALSE (ssRNA)
RNA: GGGAGUUCUACAGUCCGACGAUCAUAUUCUACUGUUUCCACAUUAAAACCAAUGGUAGGAAUGGUGGUGACUAUCUCCCCUAACUUCAGUUUAUACAGAAUGGUUGUCUUGCCAGCAGCAUCCAAUCCAACCAUCAAAAUGCGCAACAGAGGAUUGAGCAUCA
B12: chr10:62048396:62048397:-_ENSMUSG00000020075_ENSMUST00000045866|mus_mus|motif|central (ssRNA)
RNA: GGGAGUUCUACAGUCCGACGAUCGGCCUCUACAGCUCCCUUCUCCUCAAUCAGCUUCUCAGCUGACUGCUUGAAAUGGCGGAUGGCAGUGGGAGGCACAGAAUCCAAGAGCCUGAUGGCGUCUUUGCUGGAGGCUUUUAUUAUCAACAGAGGAUUGAGCAUCA
B13: chr6:42636609:42636610:-_ENSMUSG00000036667_ENSMUST00000045054|mus_mus|FALSE|FALSE (ssRNA)
RNA: GGGAGUUCUACAGUCCGACGAUCGGCAUCAAUGCAGUAAACCCCCAGGGAGUCAUUGACUUCUGGCUCAAUCUUUGACUCUAUUCCACAGCUCUCGAGAAUUUUCACCAAUGGUGCUAAAGAUGAGUGCACACCAAUGGCUGACAACAGAGGAUUGAGCAUCA
B14: chr14:76904430:76904431:+_ENSMUSG00000022010_ENSMUST00000022587|mus_mus|mus_mus_mus_hu_True|1_98 (ssRNA)
RNA: GGGAGUUCUACAGUCCGACGAUCUGCAGCCAAAAACAGAGAGAGGGAAAAAAAGAGGGAACACCAGCAGCCUUGUAUAAGCUAGAUAAAAUCUUCUGGCUUUCCGCAGCCCAGGGAGAAACAGAAAACGGCAGCCCUCGAGUGCAACAGAGGAUUGAGCAUCA
B15: chr12:86292109:86292110:-_ENSMUSG00000042350_ENSMUST00000043169|mus_mus|FALSE|FALSE (ssRNA)
RNA: GGGAGUUCUACAGUCCGACGAUCACUUUCCACUCCUUUCACUUGUCUUCUAACUUGCACAUUUGAAAAAAAAAAAAAGAAAAGAAAAAGAAAAGGCCAAAAAGUCACCAGAAAGGAUCUGCCCUCCAAAUCUUCAUUGAGGUUCAACAGAGGAUUGAGCAUCA
B16: chr7:151048522:151048523:+_ENSG00000013374_ENST00000566856|hu_mus|hu_hu_hu_mus_True|58_78 (ssRNA)
RNA: GGGAGUUCUACAGUCCGACGAUCCUGUUUCUUAUUUAUUACGAUCUUGAUGUAAUUUUCUUGAAGUCCGAAAGUUUCAGCUAUUUUACACCUCAGGUCUCUACCAGUGACAUGCAAGCGGGUCUCCAACAAGCUUUUCUUAUCCAACAGAGGAUUGAGCAUCA
B17: chr1:58468927:58468928:-_ENSMUSG00000026034_ENSMUST00000148330|mus_mus|mus_mus_mus_hu_False|8_88 (ssRNA)
RNA: GGGAGUUCUACAGUCCGACGAUCAAUUACUGAAAAAGAUGUUCAUUUAUUUGGUUUUGUACUUAAUGAACCAAAUUACCCAAACAAAAUAAACAUGGCAAUAUAAAAAUGUUAAGAAUUUACAAAGAUUAAAAGCUUAACUUACAACAGAGGAUUGAGCAUCA
B18: chr7:44244176:44244177:+_ENSG00000106636_ENST00000223369|hu_mus|hu_hu_hu_mus_False|1_58 (ssRNA)
RNA: GGGAGUUCUACAGUCCGACGAUCACUGUCGCUCCGGACGUAGACAUGGCAAAGAUACUCUUGUUCUUUGACAGAAGCUCUAGUGCCUUUCCCCGAGCGUUCCACAAUCAGUUGACUUGUAAAGGUCAUGAAUUCCUGAACGCUCAACAGAGGAUUGAGCAUCA
B19: chr11:48615247:48615248:+_ENSMUSG00000020372_ENSMUST00000020640|perfect_dup|motif|central (ssRNA)
RNA: GGGAGUUCUACAGUCCGACGAUCUCCAUCCCAGGAGCCUGAGAGGGCAAACUGGCCAUCUGAGGAGAUAACCACAUCACGGACAAAGUGGGAGUGACCCCGCAGAGCACGCUGUGGAAUUCCAUAGUUGGUCUCAUCCCUGGUCAACAGAGGAUUGAGCAUCA
B20: chr3:150289932:150289933:+_ENSG00000144895_ENST00000460851|hu_hu|hu_hu_hu_mus_False|8_78 (ssRNA)
RNA: GGGAGUUCUACAGUCCGACGAUCCUUGUAGUUUUUAACAUCCCAUACUUCCAUUUGUCCCCUCAGAUUUCCAAAUCCAGCCAGCACUAAUAUAUGUCCAUGAGGGCUAUAGAAGGCUGCGUUGCGAGGACCAGUUCCAAAGUCCAACAGAGGAUUGAGCAUCA
B21: chr3:98531265:98531266:-_ENSG00000057019_ENST00000326840|hu_hu|FALSE|FALSE (ssRNA)
RNA: GGGAGUUCUACAGUCCGACGAUCUCCGAGCAGCUCCAUUUUCAUGGCAAUUUUCUGCUGCCAUUGGGUAGGAUUCACUCUAAUAAAACGUGCAAUAAUUGGUGGCAAAAAGUUAUUACGCACAUCCUGGUGAUAAUCUUUGUUCAACAGAGGAUUGAGCAUCA
B22: chr18:52893488:52893489:-_ENSG00000196628_ENST00000354452|hu_hu|hu_hu_hu_mus_True|38_98 (ssRNA)
RNA: GGGAGUUCUACAGUCCGACGAUCUAUUUAGACCAUUUCAAUGGAUUUAUGGCAUUUACUCAGUGCUGAUAGGUGGAAAAACUACUUCAACAGGGAUUUUUUUUUUUCUUAAUACAUGCCAAGAUUGUGUGGCUGUCAAAACAGCAACAGAGGAUUGAGCAUCA

The other results are listed elsewhere or left out.

This assay addresses T1, UNK ZnF1-3 (human, UniProt Q9C0B0 31-174).
T1 sequence: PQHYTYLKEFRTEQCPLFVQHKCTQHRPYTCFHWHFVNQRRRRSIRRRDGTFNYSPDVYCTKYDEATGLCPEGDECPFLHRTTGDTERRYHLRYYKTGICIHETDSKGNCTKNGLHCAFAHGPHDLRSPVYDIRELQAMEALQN
As to the kind of experiment: nsRBNS (natural sequence RNA bind-n-seq); RBNS binding buffer (assumed for nsRBNS): 25 mM Tris pH 7.5, 150 mM KCl, 3 mM MgCl2, 0.01% Triton X-100, 500 ug/ml BSA, 20 U/ml SUPERase-In, 4 C; UNK is unkempt and MSI1 is Musashi-1; names of the RNAs are library labels; protein concentration not given here; high values mean tight binding.
Take B1: the binding signal is 1.05 enrichment R.
Under B2 stands 0.862 enrichment R.
Regarding B3, the binding signal turned out to be 1.29 enrichment R.
Under B4 stands 1.77 enrichment R; under B5, 1.19 enrichment R; under B6, 1.86 enrichment R.
Consider B7, for which the binding signal was found to be 0.419 enrichment R.
Consider B8, for which the binding signal was 0.943 enrichment R.
The same measure for B9: 1.99 enrichment R; for B10: 1.24 enrichment R.
The same measure for B11: 0.856 enrichment R.
The same measure for B12: 0.648 enrichment R; for B13: 1.01 enrichment R.
B14: the binding signal worked out at 2.51 enrichment R.
Under B15 stands 2.83 enrichment R; under B16, 0.64 enrichment R.
Under B17 stands 0.792 enrichment R; under B18, 0.471 enrichment R; under B19, 1.29 enrichment R.
Under B20 stands 1.04 enrichment R; under B21, 0.747 enrichment R.
The molecule B22 displayed a binding signal of 1.15 enrichment R.
